# Results from the supplement of paper PMC8728848.
# Some of the results follow.
# B1: PX9961U-pdi-543-24-543 (Parabacteroides distasonis) (protein)
# chain: EEPVGEFLPGQVESEENIEGIVTGAYAVLDGYYASDAINSGCSNWQFGDVVSDDAYKGGGGTGDQNQIHLMEIFNANPTGIDFEARWAALYEGIKRCNQAIRLLNGSEVKNKEQRLAEMRFLRGHYYFNLKIIYNQIPWIDETLVDPNEYNKKSNIEFSSDQLWEKILEEFSAAYKVLPESQADYGRPTKMAARAYMAKVYLYQSKWKECLEACDEVIQSGKYELFPDFRNVFLPENDNCSEIIFAIQLSINDGSPNNENGSYGDRLLPPGGPYPVYGFLRPTQNLVNAYKTDVKGLPYNDGKDVSENDYVDVRLDHTLARPNIPFMDVQLYDWTPREASVYGPYSPKKRLVSLNSTYYSPIWPYVNALNFYVIRYADLLLWRAEAAIETGDLETGRKYINMIRERAKNTQHVKTMDQSQDAANYKVGVYDEPFKSKNEAVQALRMERRLEMAHEGIRFFDLVRWGVADEVINAYIAKEKVFRSHLQNAHFVKGKHEYFPIPQSMIDICGTEVMKQNPGY
# Key:
# Assay in all cases: glycan array binding signal (z-score within array); higher = stronger binding
# Details in all cases: glycan notation: IUPAC condensed, linker removed
# [1] = target: GlcNAc(b1-3)Gal(b1-4)GlcNAc(b1-2)Man(a1-3)[GlcNAc(b1-3)Gal(b1-4)GlcNAc(b1-2)Man(a1-6)]Man(b1-4)GlcNAc(b1-4)[Fuc(a1-6)]GlcNAc
# Procedure, shortened: (§1)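 The binding signal is a Z-score computed within each array and averaged over linkers. Arrays of the same protein sequence at different concentrations or buffers were also averaged together. Data originate from 3228 arrays in the Consortium for Functional Glycomics database, kept only where the protein sequence was available.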
# [2] = target: GlcNAc(b1-3)Gal(b1-4)GlcNAc(b1-2)[GlcNAc(b1-3)Gal(b1-4)GlcNAc(b1-6)]Man(a1-6)[GlcNAc(b1-3)Gal(b1-4)GlcNAc(b1-2)Man(a1-3)]Man(b1-4)GlcNAc(b1-4)GlcNAc
# Procedure, shortened: as §1
# [3] = target: GlcNAc(b1-3)Gal(b1-4)GlcNAc(b1-3)Gal(b1-4)GlcNAc
# Procedure, shortened: as §1
# [4] = target: GlcNAc(b1-3)Gal(b1-4)GlcNAc(b1-3)Gal(b1-4)GlcNAc(b1-2)Man(a1-3)[GlcNAc(b1-3)Gal(b1-4)GlcNAc(b1-3)Gal(b1-4)GlcNAc(b1-2)Man(a1-6)]Man(b1-4)GlcNAc(b1-4)GlcNAc
# Procedure, shortened: as §1
# [5] = target: GlcNAc(b1-3)Gal(b1-4)GlcNAc(b1-3)Gal(b1-4)GlcNAc(b1-2)Man(a1-3)[GlcNAc(b1-3)Gal(b1-4)GlcNAc(b1-3)Gal(b1-4)GlcNAc(b1-2)Man(a1-6)]Man(b1-4)GlcNAc(b1-4)[Fuc(a1-6)]GlcNAc
# Procedure, shortened: as §1
# [6] = target: GlcNAc(b1-3)Gal(b1-4)GlcNAc(b1-3)Gal(b1-4)GlcNAc(b1-2)[GlcNAc(b1-3)Gal(b1-4)GlcNAc(b1-3)Gal(b1-4)GlcNAc(b1-6)]Man(a1-6)[GlcNAc(b1-3)Gal(b1-4)GlcNAc(b1-3)Gal(b1-4)GlcNAc(b1-2)Man(a1-3)]Man(b1-4)GlcNAc(b1-4)[Fuc(a1-6)]GlcNAc
# Procedure, shortened: as §1
# [7] = target: GlcNAc(b1-3)Gal(b1-4)GlcNAc(b1-3)Gal(b1-4)GlcNAc(b1-3)Gal(b1-4)GlcNAc(b1-2)Man(a1-3)[GlcNAc(b1-3)Gal(b1-4)GlcNAc(b1-3)Gal(b1-4)GlcNAc(b1-3)Gal(b1-4)GlcNAc(b1-2)Man(a1-6)]Man(b1-4)GlcNAc(b1-4)GlcNAc
# Procedure, shortened: as §1
# [8] = target: GlcNAc(b1-3)Gal(b1-4)GlcNAc(b1-3)Gal(b1-4)GlcNAc(b1-3)Gal(b1-4)GlcNAc(b1-2)Man(a1-3)[GlcNAc(b1-3)Gal(b1-4)GlcNAc(b1-3)Gal(b1-4)GlcNAc(b1-3)Gal(b1-4)GlcNAc(b1-2)Man(a1-6)]Man(b1-4)GlcNAc(b1-4)[Fuc(a1-6)]GlcNAc
# Procedure, shortened: as §1
# [9] = target: GlcNAc(b1-3)Gal(b1-4)GlcNAc(b1-3)Gal(b1-4)GlcNAc(b1-3)Gal(b1-4)GlcNAc(b1-2)[GlcNAc(b1-3)Gal(b1-4)GlcNAc(b1-3)Gal(b1-4)GlcNAc(b1-3)Gal(b1-4)GlcNAc(b1-6)]Man(a1-6)[GlcNAc(b1-3)Gal(b1-4)GlcNAc(b1-3)Gal(b1-4)GlcNAc(b1-3)Gal(b1-4)GlcNAc(b1-2)Man(a1-3)]Man(b1-4)GlcNAc(b1-4)[Fuc(a1-6)]GlcNAc
# Procedure, shortened: as §1
# [10] = target: GlcNAc(b1-3)Gal(b1-4)GlcNAc(b1-3)Gal(b1-4)GlcNAc(b1-3)Gal(b1-4)GlcNAc(b1-3)Gal(b1-4)GlcNAc(b1-2)Man(a1-3)[GlcNAc(b1-3)Gal(b1-4)GlcNAc(b1-3)Gal(b1-4)GlcNAc(b1-3)Gal(b1-4)GlcNAc(b1-3)Gal(b1-4)GlcNAc(b1-2)Man(a1-6)]Man(b1-4)GlcNAc(b1-4)GlcNAc
# Procedure, shortened: as §1
# [11] = target: GlcNAc(b1-3)Gal(b1-4)GlcNAc(b1-3)Gal(b1-4)GlcNAc(b1-3)Gal(b1-4)GlcNAc(b1-3)Gal(b1-4)GlcNAc(b1-2)Man(a1-3)[GlcNAc(b1-3)Gal(b1-4)GlcNAc(b1-3)Gal(b1-4)GlcNAc(b1-3)Gal(b1-4)GlcNAc(b1-3)Gal(b1-4)GlcNAc(b1-2)Man(a1-6)]Man(b1-4)GlcNAc(b1-4)[Fuc(a1-6)]GlcNAc
# Procedure, shortened: as §1
# [12] = target: GlcNAc(b1-3)Gal(b1-4)GlcNAc(b1-3)Gal(b1-4)GlcNAc(b1-3)Gal(b1-4)GlcNAc(b1-3)Gal(b1-4)GlcNAc(b1-2)[GlcNAc(b1-3)Gal(b1-4)GlcNAc(b1-3)Gal(b1-4)GlcNAc(b1-3)Gal(b1-4)GlcNAc(b1-3)Gal(b1-4)GlcNAc(b1-6)]Man(a1-6)[GlcNAc(b1-3)Gal(b1-4)GlcNAc(b1-3)Gal(b1-4)GlcNAc(b1-3)Gal(b1-4)GlcNAc(b1-3)Gal(b1-4)GlcNAc(b1-2)Man(a1-3)]Man(b1-4)GlcNAc(b1-4)[Fuc(a1-6)]GlcNAc
# Procedure, shortened: as §1
# [13] = target: GlcNAc(b1-3)Gal(b1-4)GlcNAc(b1-3)Gal(b1-4)GlcNAc(b1-3)GalNAc
# Procedure, shortened: as §1
# [14] = target: GlcNAc(b1-3)Gal(b1-4)GlcNAc(b1-3)GalNAc
# Procedure, shortened: as §1
# [15] = target: GlcNAc(b1-3)Gal(b1-4)GlcNAc(b1-3)[GlcNAc(b1-3)Gal(b1-4)GlcNAc(b1-3)]GalNAc
# Procedure, shortened: as §1
# [16] = target: GlcNAc(b1-3)Gal(b1-4)GlcNAc(b1-6)[Gal(b1-3)]GalNAc
# Procedure, shortened: as §1
# [17] = target: GlcNAc(b1-3)Gal(b1-4)GlcNAc(b1-6)[GlcNAc(b1-3)Gal(b1-3)]GalNAc
# Procedure, shortened: as §1
# [18] = target: GlcNAc(b1-3)Gal(b1-4)GlcNAc(b1-6)[GlcNAc(b1-3)]Gal(b1-4)GlcNAc
# Procedure, shortened: as §1
# GlcNAc(b1-3)GalNAc = target: GlcNAc(b1-3)GalNAc
# Procedure, shortened: as §1
binder,measurement,setting,value
B1,glycan array binding signal (z-score),[1],0.498
same,glycan array binding signal (z-score),[2],-0.096
same,glycan array binding signal (z-score),[3],-0.408
same,glycan array binding signal (z-score),[4],0.226
same,glycan array binding signal (z-score),[5],-0.248
same,glycan array binding signal (z-score),[6],-0.247
same,glycan array binding signal (z-score),[7],-0.357
same,glycan array binding signal (z-score),[8],-0.256
same,glycan array binding signal (z-score),[9],-0.308
same,glycan array binding signal (z-score),[10],-0.418
same,glycan array binding signal (z-score),[11],-0.064
same,glycan array binding signal (z-score),[12],-0.227
same,glycan array binding signal (z-score),[13],-0.417
same,glycan array binding signal (z-score),[14],-0.309
same,glycan array binding signal (z-score),[15],-0.147
same,glycan array binding signal (z-score),[16],-0.373
same,glycan array binding signal (z-score),[17],-0.228
same,glycan array binding signal (z-score),[18],-0.448
same,glycan array binding signal (z-score),GlcNAc(b1-3)GalNAc,-0.325
